From PubChem BioAssay AID1346428 (National Center for Advancing Translational Sciences (NCATS), 2018)
Screen size: about 48,000 compounds; about 1,200 (2.5%) were called active. Not shown: some 2% with an inconclusive outcome.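 How the source made its calls: active means activation of at least 60% and not above a set upper limit (about 1 call in 100 departs from these limits); inconclusive means activation of 40% to 60%, or above that upper limit; inactive means activation under 40%.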 The list shows a part of the results. Some compounds were tested as several samples or in several runs, with calls that do not always agree.

The molecules below were run against Probable G-protein coupled receptor 32 (Homo sapiens) (UniProt O75388) (assay: qHTS for Agonists of Human Resolvin D1 Receptor DRV1). Conditions: CHO-K1 GPR32 beta-arrestin PathHunter luminescence, 90 min; at 76.9 µM; active compounds read high; zero percent set by DMSO-only wells.
Chain of UniProt O75388 (O75388 whole entry, looked up): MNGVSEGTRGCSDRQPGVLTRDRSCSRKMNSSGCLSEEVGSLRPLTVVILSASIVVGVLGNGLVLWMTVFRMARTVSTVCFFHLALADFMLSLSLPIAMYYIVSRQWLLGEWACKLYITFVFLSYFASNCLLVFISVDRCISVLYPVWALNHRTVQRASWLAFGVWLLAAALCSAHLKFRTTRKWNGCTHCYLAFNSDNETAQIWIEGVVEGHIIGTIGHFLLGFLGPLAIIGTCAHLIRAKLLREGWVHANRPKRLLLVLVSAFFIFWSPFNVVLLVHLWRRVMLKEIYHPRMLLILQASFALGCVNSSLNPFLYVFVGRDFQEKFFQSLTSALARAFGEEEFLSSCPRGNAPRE
Method in brief: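 Beta-arrestin recruitment read-out: luminescence from complemented beta-Gal in CHO-K1 GPR32 PathHunter cells, measured 1 h after detection reagent at ambient temperature following 90 min compound exposure at 37 °C; DMSO served as basal (EC0) control.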
With `Cc1ccccc1CN1CCN(CC(=O)NCc2ccccc2Cl)C1=O` the activation was inactive: -19.1%. With `COc1ccc2oc(-c3ccc(C)c(NC(=O)Cc4ccc(Cl)cc4)c3)nc2c1` the activation was inactive: 0.567%. `Cn1cnc2c(=O)oc3ccc(S(=O)(=O)N4CCN(c5cccc(Cl)c5)CC4)cc3c21` was tested, and the activation was inactive: 4.7%. In the case of `Cc1cccc(-c2nc(Cn3c(SCc4cccc(C(F)(F)F)c4)nc4ccncc43)c(C)o2)c1`, the activation is reported as inactive: -12.5%. `Cc1c(NC(=O)c2cc(=O)c3cc(Cl)ccc3o2)c(=O)n(-c2ccccc2)n1C` was tested, and the activation was inactive: 0.516%. With `Fc1ccc2c(c1)NC(c1ccncc1)=NC(c1cccs1)=N2` the activation was inactive: -0.659%. For `Cc1nc2c(C(=O)NC(C)c3ccccc3)cnn2c(C)c1Cc1ccccc1` (centres undefined), the activation was inactive: -30.5%. With `COC(=O)c1cc2occc2n1Cc1nc(-c2ccc(C)cc2)oc1C` the activation was inactive: -33.7%. `CCC(=O)Nc1nnc(S(=O)(=O)N2CCc3ccccc32)s1` was tested, and the activation was inactive: -4.49%. With `CCn1cc2nc(SCc3ccccc3F)n(Cc3ccc(C)cc3)c(=O)c2n1` the activation was inactive: -0.997%. In the case of `Cc1ccc(NC(=O)CCS(=O)(=O)c2cccc3nsnc23)c(C)c1`, the activation is reported as inactive: 17.8%. With `CCN(Cc1ccccc1)C(=O)CN1C(=O)COc2ccc(S(=O)(=O)N3CCCCCC3)cc21` the activation was inactive: -48.3%. In the case of `CCOc1ccc(NC(=O)CCS(=O)(=O)c2ccc3c(c2)n(C)c(=O)c(=O)n3C)cc1`, the activation is reported as inactive: -10.8%. In the case of `Cc1ccc2cccc(NC(=O)C(C)(C)Oc3ccc(Br)cc3)c2n1`, the activation is reported as inactive: -4.79%. `CCCS(=O)(=O)Nc1cc2c(cc1NCc1ccccc1)n(C)c(=O)n2C` was tested, and the activation was inactive: 30%. `CCOc1ccc(NC(=O)CSc2nc(-c3ccc(F)cc3)cc(C(F)(F)F)c2C#N)cc1` was tested, and the activation was inactive: -11.6%. For `CCOC(=O)c1ccccc1NC(=O)Cn1c2ncccc2c(=O)n1-c1ccccc1`, the activation was inactive: 8.48%. `Cc1ccc(C)c(N2CCN(Cc3nnc(-c4ccccc4)o3)CC2)c1` was tested, and the activation was inactive: -12.3%. For `COc1cccc(C(=O)c2cn(CC(=O)Nc3cccc(C)c3C)c3nc(C)ccc3c2=O)c1`, the activation was inactive: -3.29%. `CCOC(=O)CSc1nc2ccc(NC(=O)c3ccccc3)cc2s1` was tested, and the activation was active: 82%. With `COc1cc(-c2nnc(SCCOc3ccc(C)c(Cl)c3)o2)cc(OC)c1OC` the activation was inactive: -9.55%. For `CCOCCCn1c(SCC(=O)Nc2ccc(OC)cc2OC)nc2ccccc2c1=O`, the activation was inactive: -12.9%. In the case of `Cc1ccc(CN2CCc3nc(SCC(=O)Nc4cccc(C)c4C)[nH]c(=O)c3C2)cc1`, the activation is reported as inactive: 11.4%. For `Cc1cccc(C)c1NC(=O)Cn1nc(C)c2sc3ccccc3c2c1=O`, the activation was inactive: -9.05%. With `COc1ccc(-c2cn3c(n2)sc2cc(C(=O)Nc4cc(Cl)ccc4C)ccc23)cc1` the activation was inactive: -4.79%. With `CCc1ccc(C(=O)Nc2ccc3nn(-c4ccc(C)c(Cl)c4)nc3c2)cc1` the activation was inactive: -6.18%. For `COC(=O)c1c(NC(=O)CCCOc2ccccc2C)sc2c1CCC(C)C2` (centres undefined), the activation was inactive: 30.1%. In the case of `Cc1ccc(OCc2nc(-c3ccc(C(=O)NCCc4ccc(S(N)(=O)=O)cc4)cc3)oc2C)cc1`, the activation is reported as active: 82.3%. In the case of `CCc1ccc(NC(=O)CCCc2nc(-c3ccco3)no2)cc1`, the activation is reported as inactive: -1.05%. In the case of `COc1cc2[nH]c(=O)n(CCCC(=O)NCc3ccccc3)c(=O)c2cc1OC`, the activation is reported as inactive: -0.346%. With `COc1ccc(CNC(=O)c2c(Nc3ccccc3C)sc(C(=O)c3ccccc3)c2N)cc1` the activation was inactive: -84.2%. For `O=C(Nc1ccc2nc(SCC(=O)N3CCCC3)sc2c1)c1ccccc1F`, the activation was inactive: 2.56%. For `COc1ccccc1CNC(=O)CN1C(=O)CCc2cc(S(=O)(=O)N3CCOCC3)ccc21`, the activation was inactive: 33.1%. `COc1ccc(NC(=O)c2cc(-c3ccccc3O)no2)cc1` was tested, and the activation was inactive: -7.88%. `Cc1ccc(NC(=O)CN2C(=O)CCc3cc(S(=O)(=O)N4CCCCC4)ccc32)cc1N(C)C` was tested, and the activation was inactive: 14.5%. `CC1CN(C(=O)N2CCC(C(=O)NCc3ccco3)CC2)c2cc(Cl)ccc2O1` (centres undefined) was tested, and the activation was inactive: 3.17%. In the case of `CCOC(=O)c1sc2ccccc2c1S(=O)(=O)N1CCN(c2ccccc2)CC1`, the activation is reported as inactive: -16.7%. `CCOC(=O)c1cccc(N)c1` was tested, and the activation was inactive: 5.1%. `O=C(CSc1nc(-c2cccs2)nc2cc(=O)[nH]n12)Nc1ccc(F)cc1` was tested, and the activation was inactive: -37.5%. `CCOC(=O)c1cnc2c(C(F)(F)F)cccc2c1Nc1cccc(C(=O)OC)c1` was tested, and the activation was inactive: -6.85%. For `CCOc1ccccc1NC(=O)CSc1nc2c(oc3ccccc32)c(=O)n1Cc1ccco1`, the activation was inactive: -28.7%. With `Cc1ccc(Cl)cc1NC(=O)CSc1nc(C)c(C)c(C)c1C#N` the activation was active: 115%. `COc1ccc(-c2noc(CSc3nnc(-c4ccc(Cl)cc4)n3C)n2)cc1OC` was tested, and the activation was inactive: 0.748%. With `COc1ccc(CCNC(=O)Cn2cc(S(=O)(=O)Cc3cccc(Cl)c3)c3ccccc32)cc1OC` the activation was inactive: -7.82%. For `CCc1cnc2c(c1SCC(=O)Nc1cc(Cl)ccc1OC)c(=O)n(C)c(=O)n2C`, the activation was inactive: 8.67%. With `CC(C)c1ccc(NC(=O)CSc2nc(=O)n(Cc3cccnc3)c3c2CCC3)cc1` the activation was inactive: 0.114%. In the case of `CN1CCN(C(=O)Nc2cccc(Cl)c2)c2cccnc21`, the activation is reported as inactive: 27.7%. `Cc1ccc(CNC(=O)C2CCCN(S(=O)(=O)c3ccc4c(ccn4C)c3)C2)cc1` (centres undefined) was tested, and the activation was inactive: -0.631%. In the case of `CCCCN(CCCC)CCNC(=O)c1cc(=O)[nH]c2ccc(S(=O)(=O)N3CCCCCC3)cc12`, the activation is reported as inactive: -12.4%. `CCc1ccc(CNC(=O)C2CCN(C(=O)N3CC(CC)Oc4ccc(C)cc43)CC2)cc1` (centres undefined) was tested, and the activation was inactive: -21.1%. With `Cc1cc(C)c(NC(=O)CSc2ncc(S(=O)(=O)c3ccc(C(C)(C)C)cc3)c(=O)[nH]2)c(C)c1` the activation was inactive: 46.5%. For `O=C(NC1CCCC1)c1ccc2c(c1)N(Cc1ccccc1Cl)C(=O)c1ccccc1S2`, the activation was inactive: -12.5%. With `COc1ccccc1Nc1c2c(nc3ccc(NC(=O)c4cccc(F)c4)cc13)CCCC2` the activation was inactive: -0.372%. `COc1ccccc1CNC(=O)CS(=O)Cc1nc(-c2ccc(OC)c(OC)c2)oc1C` (centres undefined) was tested, and the activation was inactive: -16.1%. In the case of `CC(=O)c1nn(-c2ccc(OC(F)(F)F)cc2)nc1Nc1ccc(C)cc1`, the activation is reported as inactive: 5.96%. In the case of `CCOC(=O)c1ccc(NC(=O)C2CCN(S(=O)(=O)c3ccc(C)cc3)CC2)cc1`, the activation is reported as inactive: -1.33%. With `COc1ccc(Nc2cc(C)c3cc(NC(=O)Cc4c(F)cccc4Cl)ccc3n2)cc1` the activation was inactive: 17.2%. For `CCN(Cc1ccccc1)C(=O)C1CCN(S(=O)(=O)c2c(C)noc2/C=C/c2ccc(C)cc2)CC1`, the activation was inactive: -20%. `Cc1ccc2nc(-c3ccc(NC(=O)COc4ccc(Cl)c(C)c4)cc3)sc2c1` was tested, and the activation was inactive: -4.67%. In the case of `CCC1CN(C(=O)N2CCC(C(=O)O)CC2)c2cc(C)ccc2O1` (centres undefined), the activation is reported as inactive: 4.63%. In the case of `CCCNCC(O)COc1ccccc1C(=O)CCc1ccccc1` (centres undefined), the activation is reported as inactive: 2.25%. For `Cc1ccc(CCNC(=O)c2ccc(CSCc3ccccc3C)o2)cc1`, the activation was inactive: -23.3%. In the case of `CCOc1ccc(CNS(=O)(=O)c2ccc(-c3cc(C(F)(F)F)on3)s2)cc1`, the activation is reported as inactive: 1.46%. For `COc1ccccc1CNC(=O)c1sc2nc3n(c(=O)c2c1C)CCC3`, the activation was inactive: -18%. With `CCn1c(SCc2ccccc2F)nc(=O)c2c(C(=O)OC)cc(C3CC3)nc21` the activation was inactive: 0.0152%. With `CCOc1ccc(Cl)cc1C1CC(=O)Nc2cc(OC)c(OC)c(OC)c21` (centres undefined) the activation was inactive: -11.7%. In the case of `Cc1cccc(N2CCN(C(=O)c3ccc(NC(=O)c4nsc5ccccc45)cc3)CC2C)c1` (centres undefined), the activation is reported as inactive: 8.22%. `CCCNc1ccc(-c2nc(-c3ccncc3)no2)cc1[N+](=O)[O-]` was tested, and the activation was inactive: -22.7%. For `CCOc1ccc(-c2cc(C(=O)NCc3ccc(C)cc3)c3ccccc3n2)cc1`, the activation was inactive: -2.89%. In the case of `CCOC(=O)C1CCCN(C(=O)Cn2ncc3c([nH]c4ccc(C)cc43)c2=O)C1` (centres undefined), the activation is reported as inactive: 16.1%. In the case of `NC(=O)C(c1ccccc1)(c1ccccc1)[C@@H]1CCN(CCc2ccc3c(c2)CCO3)C1`, the activation is reported as inactive: -9.43%. For `Cc1ccc(C)c(N2CCN(C(=O)c3ccc4[nH]c(C)c(C)c4c3)CC2)c1`, the activation was inactive: -10.9%. For `CCCC(CCC)C(=O)Nc1cccc(-c2cn3cccnc3n2)c1`, the activation was inactive: 20.9%. For `CSc1nc2c([nH]c3ccccc32)c(=O)n1-c1ccc(C)cc1`, the activation was inactive: 45.1%. In the case of `Cc1ccc2nc(-c3ccc(Cl)c(NC(=O)c4ccc(Br)o4)c3)oc2c1`, the activation is reported as inactive: -9.02%. With `O=C(COCc1cc(-c2ccc3c(c2)OCO3)on1)NCc1ccc(F)cc1` the activation was inactive: -7.83%. `CSc1ccc(CCNC(=O)c2ccc(CS(=O)Cc3ccc(Cl)cc3)o2)cc1` (centres undefined) was tested, and the activation was inactive: 16.6%. `O=C(CSc1nc(-c2cccs2)nc2cc(=O)[nH]n12)Nc1ccccc1Cl` was tested, and the activation was inactive: -41.6%. For `COc1cc(C2CC(=O)Nc3c2c(C)nn3-c2nncc(-c3ccccc3)n2)cc(OC)c1OC` (centres undefined), the activation was inactive: 5.13%. With `Cc1ccc(Cl)cc1NC(=O)c1cc(S(=O)(=O)N2CCCCCC2)cn1C` the activation was inactive: 8.31%. In the case of `CCc1ccc2c(c1)NC(c1cccnc1)=NC(c1ccc(C(C)(C)C)cc1)=N2`, the activation is reported as inactive: -8.02%. For `Cc1cccc(-c2nc(CSCC(=O)N3CCN(c4cccc(C)c4C)CC3)c(C)o2)c1`, the activation was inactive: -16.4%. For `Cc1ccc(C)c(N2CCN(S(=O)(=O)c3cc(C(=O)Nc4cc(Cl)cc(Cl)c4)ccc3F)CC2)c1`, the activation was inactive: -8.45%. With `O=C(Nc1ccccc1Cl)c1cc2c(-c3ccccc3)nn(-c3ccccc3)c2s1` the activation was inactive: -5.27%.
